Measurements as given in paper PMC4336329 (PLoS ONE, 2015).
About 14,000 (4.5%) of roughly 310,000 compounds showed an effect of 50% or more. The effect is printed as a negative number. The list shows a part of the results.

target: human ether-à-go-go-related gene (hERG) potassium channel (human, UniProt Q12809); assay: primary screen, population patch clamp on CHO cells stably expressing hERG
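Also: peak tail current of the secondary pulse compared with the same well before compound.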

Chain of human ether-à-go-go-related gene (hERG) potassium channel (Q12809 whole entry, looked up): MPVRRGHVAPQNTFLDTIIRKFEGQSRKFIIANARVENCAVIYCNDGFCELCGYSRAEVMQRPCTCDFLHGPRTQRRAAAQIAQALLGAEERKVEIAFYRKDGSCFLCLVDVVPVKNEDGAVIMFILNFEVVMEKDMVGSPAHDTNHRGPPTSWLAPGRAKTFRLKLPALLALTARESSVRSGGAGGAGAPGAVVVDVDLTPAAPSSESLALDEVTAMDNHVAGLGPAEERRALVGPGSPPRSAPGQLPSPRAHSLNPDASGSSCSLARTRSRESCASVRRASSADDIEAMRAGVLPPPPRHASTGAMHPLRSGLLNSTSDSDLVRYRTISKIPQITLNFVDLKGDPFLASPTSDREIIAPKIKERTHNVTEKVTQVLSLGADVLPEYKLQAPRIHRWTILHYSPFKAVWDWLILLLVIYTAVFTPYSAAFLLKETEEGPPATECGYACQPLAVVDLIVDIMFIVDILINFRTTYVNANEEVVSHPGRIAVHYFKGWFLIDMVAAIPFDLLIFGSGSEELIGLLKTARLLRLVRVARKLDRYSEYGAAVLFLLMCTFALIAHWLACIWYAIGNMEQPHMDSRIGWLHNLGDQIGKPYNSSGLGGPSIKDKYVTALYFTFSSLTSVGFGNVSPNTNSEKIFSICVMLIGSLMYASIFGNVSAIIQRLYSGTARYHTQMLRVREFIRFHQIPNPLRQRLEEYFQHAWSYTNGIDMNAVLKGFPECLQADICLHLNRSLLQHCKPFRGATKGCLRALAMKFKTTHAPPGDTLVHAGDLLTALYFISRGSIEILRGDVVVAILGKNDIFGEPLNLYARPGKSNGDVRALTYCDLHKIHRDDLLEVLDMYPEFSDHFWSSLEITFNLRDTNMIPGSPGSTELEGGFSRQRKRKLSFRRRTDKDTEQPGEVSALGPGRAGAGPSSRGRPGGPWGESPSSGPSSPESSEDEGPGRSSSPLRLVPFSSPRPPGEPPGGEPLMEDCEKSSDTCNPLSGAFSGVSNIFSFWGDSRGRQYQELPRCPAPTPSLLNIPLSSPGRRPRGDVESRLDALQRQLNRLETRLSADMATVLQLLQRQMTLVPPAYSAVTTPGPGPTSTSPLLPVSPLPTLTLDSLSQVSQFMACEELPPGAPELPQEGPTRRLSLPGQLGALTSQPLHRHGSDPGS

| SMILES | hERG current change (%, negative = inhibition) at 10uM |
| --- | --- |
| Cc1cc(NC(=O)CSCC(=O)Nc2cccc(S(=O)(=O)N3CCCCCC3)c2)no1 | -23.5% |
| COc1ccc(NS(=O)(=O)c2ccc3c(c2)N(C(C)=O)CCS3)cc1 | 6.97% |
| CC1(C)N([O-])C(c2cccs2)=C[N+]1=O | -7.12% |
| COc1cc(C(=O)OC(C)C(=O)NCC2CCCCC2)cc(NC(=O)c2ccco2)c1OC (stereo not drawn) | 8.29% |
| COc1ccc(NC(=O)CSC2CC(=O)N(c3ccc4c(c3)OCCO4)C2=O)cc1 (stereo not drawn) | 4.54% |
| O=c1[nH]c2cc3c(cc2cc1CN(CCO)S(=O)(=O)c1ccccc1)OCCO3 | -19% |
| Cc1c(NC(=O)COC(=O)/C=C/c2cccc(Cl)c2)c(=O)n(-c2ccccc2)n1C | -58.7% |
| COc1ccccc1NS(=O)(=O)c1ccc(N2CCOCC2)c(NC(=O)c2ccco2)c1 | -2.73% |
| O=C(O)CSc1c(-c2cccs2)[nH]c2ccccc12 | 1.69% |
| Cc1ccccc1Cn1ccc(-c2ccc(Cl)cc2)c(C#N)c1=O | -23.2% |
| CCO[C@@H]1OC(C(=O)N2CCN(Cc3ccccc3)CC2)=C[C@H](c2ccc(Br)cc2)[C@H]1CCCO | -27.2% |
| CC(=O)N(C)c1ccc(OCC(O)CN(Cc2ccco2)S(=O)(=O)c2ccc(C)cc2)cc1 (stereo not drawn) | -34.7% |
| CC(C)(C)C(=O)CSc1ccc(S(=O)(=O)N2CCCC2)cn1 | -4.91% |
| CNC(=S)NC1CC2CCC(C1)N2Cc1ccccc1 (stereo not drawn) | -16.5% |
| Cc1ccc(OCC(=O)NCCCNC(=O)c2ccco2)cc1C | 14.6% |
| Cn1ccc(NC(=O)Nc2cccc(C(F)(F)F)c2)n1 | -23% |
| CCN(CC)S(=O)(=O)c1ccc(Cl)c(NC(=O)c2ccncc2)c1 | -49.9% |
| Cc1cc(=O)oc2cc(OCC(=O)c3ccccc3)ccc12 | 10.9% |
| CC1(C)Cc2c(sc(NC(=O)Nc3ccccc3)c2C(N)=O)CO1 | 12.9% |
| CCn1c(=O)c2ccccc2n(Cc2ccccc2C)c1=O | -4.05% |
| COc1cc(C2C(C#N)=C(N)OC3=C2C(=O)CC(C)(C)C3)cc([N+](=O)[O-])c1O (stereo not drawn) | -11.2% |
| COc1ccc2[nH]c(=O)c(CN(Cc3nnnn3Cc3ccco3)C3CCCCC3)cc2c1 | -24.9% |

| SMILES | hERG current change (%, negative = inhibition) at 10uM |
| --- | --- |
| CC(=O)Nc1ccc(NC(=O)c2ccccc2N(C)S(=O)(=O)c2ccccc2)cc1 | 24.3% |
| Cc1ccc(C(=O)CSC2=C(C#N)C(c3ccco3)C3=C(CCCC3=O)N2)cc1 (stereo not drawn) | -15.8% |
| COc1ccc2oc(C(=O)NN3C(C)CCCC3C)c(C)c2c1 (stereo not drawn) | 16.1% |
| CCN1CCN(C(=O)CCc2ccc(S(=O)(=O)NCCc3ccccc3)cc2)CC1 | -2.7% |
| CC(NC(=O)c1ccc(C(C)(C)C)cc1)C(c1cccs1)N1CCOCC1 (stereo not drawn) | -1.51% |
| CC(C)c1nnc(NC(=O)CCC2CCCCC2)s1 | 17.4% |
| COc1cc2c(cc1O)CCN(C(=O)CSc1nncn1C)[C@@H]2C | 11.5% |
| Cc1nnc(NC(=O)CN2CCN(Cc3ccc(F)cc3Cl)CC2)s1 | 8.45% |
| CCOc1ccccc1NC(=O)N1CCCC1C(=O)Nc1ccc(-n2cnnn2)c(C)c1 (stereo not drawn) | -26.8% |
| COC(=O)c1onc(C(=O)c2ccccc2)c1C(=O)OC | 8.73% |
| COc1ccc(S(=O)(=O)N2CCc3ccccc32)cc1C(=O)OCc1c(C)noc1C | -6.18% |
| C/C(N)=N\S(=O)(=O)c1ccc(Cl)cc1 | 6.53% |
| Cn1cc(C(=O)c2cccc(Cl)c2)cc1/C=N\O | -28% |
| COc1ccccc1CNC(=S)Nc1ccc(F)cc1 | 6.39% |
| Cc1ccc(NC(=O)CSc2nnc(-c3ccccn3)n2N)c(Br)c1 | -16.1% |
| Cc1ccc(S(=O)(=O)N2CCCCC2CCNC(=O)C(=O)NCc2cccnc2)cc1 (stereo not drawn) | -22.7% |
| O=C(CC1CS(=O)(=O)CC1CC(=O)Oc1ccccc1F)Oc1ccccc1F (stereo not drawn) | 1.91% |
| COc1ccc(NC(=S)N2CCN(c3ccc([N+](=O)[O-])cc3)CC2)cc1OC | -77.3% |
| CCCCn1c(N)c(N(CC(C)C)C(=O)c2ccc(-c3ccc(C(C)=O)cc3)o2)c(=O)[nH]c1=O | 6.68% |
| CCn1c(CC(=O)Nc2ccc(F)cc2)nnc1SCC(=O)NC1=NCCS1 | 7.98% |
| CC(=O)Nc1ccc(C(=O)OC2CCOC2=O)cc1 (stereo not drawn) | 12.5% |
| Cn1c(CO)nc2c3ccccc3ccc21 | 10.6% |

| SMILES | hERG current change (%, negative = inhibition) at 10uM |
| --- | --- |
| CCCCN(C(=O)c1ccccc1OCc1ccc(F)cc1)c1c(N)n(CCC)c(=O)[nH]c1=O | 17.1% |
| COc1ccc(OCC(=O)Nc2nnc(S(=O)(=O)N3CCCCCC3)s2)cc1 | 12.3% |
| CCOc1ccc2nc(NC(=O)c3c([N+](=O)[O-])cnn3CC)sc2c1 | 2.81% |
| Cc1ccc(NC(=O)C(=O)NCCCN2CC(C(=O)O)CC2=O)cc1 (stereo not drawn) | 17.2% |
| Cc1cc(C)c(C)c(OCCN2CCOCC2)c1 | 1.23% |
| COc1cccc(-c2ncc3ccccc3c2COC(=O)N(C)C)c1 | -3.98% |
| CCN(CC)C(=O)NCc1c(C)cc(C)cc1C | 8.98% |
| O=C(Cn1nnc2ccccc21)Nc1ccc([N+](=O)[O-])cc1 | 12.7% |
| COc1ccccc1NC(=O)c1sc2nc(C)cc(C)c2c1N | 5.36% |
| Cl.O=C(Nc1ccc(N2CCN(Cc3ccccc3F)CC2)cc1)c1ccccc1[N+](=O)[O-] | 8% |
| CCC(C)Nc1cc(C)c(C#N)c2nc3ccccc3n12 (stereo not drawn) | -39.4% |
| CCCc1cc(=O)[nH]c(SCc2nc3ccccc3s2)n1 | -3.71% |
| O=C(Cn1cnc(S(=O)(=O)N2CCCC2)c1)Nc1ccccc1 | 11.7% |
| Cc1ccc2oc(C(=O)Nc3cc(C)on3)c(C)c2c1 | -1.98% |
| CCN(CC)S(=O)(=O)c1cccc(-c2nnc(SCc3nc4ccccc4s3)o2)c1 | -3.82% |
| COC(=O)c1ccc(N2CCN(C)CC2)c(NC(=O)c2ccc(-c3ccc(Cl)cc3)o2)c1 | 7.11% |
| COc1ccc2ccccc2c1CN(C)Cc1ccccc1.O=C(O)C(=O)O | -51.7% |
| COC(=O)c1nc(N)sc1C | 9.83% |
| Cc1cc(C)c(S(=O)(=O)N2CCCC(C(=O)NC3CC3)C2)c(C)c1 (stereo not drawn) | -47.2% |
| O=c1oc2ccccc2c(N2CCC(c3ccccc3)CC2)c1[N+](=O)[O-] | -3.83% |
| O=c1oc(-c2cccc(Cl)c2)nc2c1cnn2-c1ccccc1 | 3.11% |
| COc1cc([N+](=O)[O-])ccc1NC(=O)CSc1nncn1-c1cccnc1 | -10.5% |

| SMILES | hERG current change (%, negative = inhibition) at 10uM |
| --- | --- |
| COc1cc(NC(=O)c2ccc(C)cc2)c(OC)cc1NC(=O)CN1CCOCC1 | -11.9% |
| C[C@]12CC[C@H]3C(CCC4(O)CC(O)CC[C@]34C=O)C1=CC[C@H]2c1ccc(=O)oc1 (stereo partly drawn) | 12.4% |
| O=S(=O)(Nc1cc(Cl)cc(Cl)c1)N1CCOCC1 | 3.6% |
| Cc1cnc(C(=O)NC(Cc2ccccc2)c2ccccc2)cn1 (stereo not drawn) | 0.29% |
| Cn1c(=O)nc2n(Cc3ccccc3)c3ccccc3cc-2c1=O | -1.36% |
| O=C(CCN1CCN(c2ccccc2)CC1)NNC(=O)Cc1ccccc1Cl | 5.76% |
| CC(C)c1ccc(/C=C/C(=O)Nc2nc3ccc([N+](=O)[O-])cc3s2)cc1 | -6.32% |
| CCOC(=O)c1c(C)c(P(=S)(N2CCOCC2)N2CCOCC2)n(C)c1C | -11.7% |
| O=C(CN1C(=O)NC2(CCCCCC2)C1=O)NCCc1ccc(F)cc1 | -13% |
| COc1ccc(Cn2ccnc2)cc1[N+](=O)[O-] | -0.186% |
| O=C(NC1CC1)C1CCN(C2CCN(C(=O)/C=C/c3cccs3)CC2)CC1 | -34.4% |
| Cc1cc(C(=O)N2CCCC(Nc3ccc(F)cc3)C2)n(C)n1 (stereo not drawn) | 9.51% |
| NS(=O)(=O)c1ccc(NC(=O)COC(=O)C2CC(=O)N(Cc3ccccc3)C2)cc1 (stereo not drawn) | 36.4% |
| CCc1c(C)sc(NC(=S)N2CCN(CC)CC2)c1C(=O)OC | 36.1% |
| COc1ccc(NC(=O)NNC(=O)COc2cc(C)c(Cl)c(C)c2)c(OC)c1 | 20.8% |
| COCCSc1nnc(NC(=O)C2CC(=O)N(C3CCCC3)C2)s1 (stereo not drawn) | 21.8% |
| Cc1ccc(S(=O)(=O)c2nc(S(=O)(=O)c3ccc(C)cc3)c(N3CCN(CCO)CC3)s2)cc1 | -26.1% |
| Cc1nc2n[nH]c(N)c2c2c1COC(C)(C)C2 | -10% |
| CN(C)S(=O)(=O)c1ccc(Cl)c(C(=O)OCC(=O)NC(=O)NC2CCCC2)c1 | 4.07% |
| N#C/C(=C/c1ccc(-c2ccccc2[N+](=O)[O-])o1)C(N)=O | 49.1% |
| CC1Sc2ccc(C(=O)Nc3ccccc3OC(F)F)cc2NC1=O (stereo not drawn) | 3.79% |
